Test results published in PubChem BioAssay AID1347165 (National Center for Advancing Translational Sciences (NCATS), 2019).
In all, about 220,000 compounds went through this assay and about 5,700 (2.6%) were called active. Inconclusive results, whose numbers are uncertain, are shown with a selection of clear calls. The call rests on the fitted dose curve; in most records, active means well fitted inhibition curve with a large enough effect; inconclusive means small, poorly fitted or top-dose-only effect; inactive means no such curve, though single readings can be large or run the other way. A potency beside an inconclusive call is a rough fit, not a confirmed value.

Each compound was assayed against Lysine-specific demethylase 5B (Homo sapiens) (UniProt Q9UGL1) (assay: Primary screen for KDM5B Histone Demethylases FDH-coupled qHTS). Details: FDH-coupled NADH fluorescence (FDH is formaldehyde dehydrogenase); activity change, negative = inhibition: at 57.7 µM (top of the series) unless noted.
Method in brief: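 Here, H3K4me3 peptide (12.5 µM in substrate mix) is demethylated by KDM5BΔAP, 200 nM final, after 10 min compound exposure. Formaldehyde product is coupled through FDH (0.25 U/mL in mix) to NADH fluorescence; 30-min ΔRFU feeds dose-response curves.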
Further: nearly all actives have a fitted effect of over 70% in size.
Potency means the concentration at half of the fitted maximal effect; tags describe the fitted curve by direction and shape.
Wherever activity change, negative = inhibition is given: 0% is about no effect.

Sequence of UniProt Q9UGL1 (Q9UGL1 whole entry, looked up): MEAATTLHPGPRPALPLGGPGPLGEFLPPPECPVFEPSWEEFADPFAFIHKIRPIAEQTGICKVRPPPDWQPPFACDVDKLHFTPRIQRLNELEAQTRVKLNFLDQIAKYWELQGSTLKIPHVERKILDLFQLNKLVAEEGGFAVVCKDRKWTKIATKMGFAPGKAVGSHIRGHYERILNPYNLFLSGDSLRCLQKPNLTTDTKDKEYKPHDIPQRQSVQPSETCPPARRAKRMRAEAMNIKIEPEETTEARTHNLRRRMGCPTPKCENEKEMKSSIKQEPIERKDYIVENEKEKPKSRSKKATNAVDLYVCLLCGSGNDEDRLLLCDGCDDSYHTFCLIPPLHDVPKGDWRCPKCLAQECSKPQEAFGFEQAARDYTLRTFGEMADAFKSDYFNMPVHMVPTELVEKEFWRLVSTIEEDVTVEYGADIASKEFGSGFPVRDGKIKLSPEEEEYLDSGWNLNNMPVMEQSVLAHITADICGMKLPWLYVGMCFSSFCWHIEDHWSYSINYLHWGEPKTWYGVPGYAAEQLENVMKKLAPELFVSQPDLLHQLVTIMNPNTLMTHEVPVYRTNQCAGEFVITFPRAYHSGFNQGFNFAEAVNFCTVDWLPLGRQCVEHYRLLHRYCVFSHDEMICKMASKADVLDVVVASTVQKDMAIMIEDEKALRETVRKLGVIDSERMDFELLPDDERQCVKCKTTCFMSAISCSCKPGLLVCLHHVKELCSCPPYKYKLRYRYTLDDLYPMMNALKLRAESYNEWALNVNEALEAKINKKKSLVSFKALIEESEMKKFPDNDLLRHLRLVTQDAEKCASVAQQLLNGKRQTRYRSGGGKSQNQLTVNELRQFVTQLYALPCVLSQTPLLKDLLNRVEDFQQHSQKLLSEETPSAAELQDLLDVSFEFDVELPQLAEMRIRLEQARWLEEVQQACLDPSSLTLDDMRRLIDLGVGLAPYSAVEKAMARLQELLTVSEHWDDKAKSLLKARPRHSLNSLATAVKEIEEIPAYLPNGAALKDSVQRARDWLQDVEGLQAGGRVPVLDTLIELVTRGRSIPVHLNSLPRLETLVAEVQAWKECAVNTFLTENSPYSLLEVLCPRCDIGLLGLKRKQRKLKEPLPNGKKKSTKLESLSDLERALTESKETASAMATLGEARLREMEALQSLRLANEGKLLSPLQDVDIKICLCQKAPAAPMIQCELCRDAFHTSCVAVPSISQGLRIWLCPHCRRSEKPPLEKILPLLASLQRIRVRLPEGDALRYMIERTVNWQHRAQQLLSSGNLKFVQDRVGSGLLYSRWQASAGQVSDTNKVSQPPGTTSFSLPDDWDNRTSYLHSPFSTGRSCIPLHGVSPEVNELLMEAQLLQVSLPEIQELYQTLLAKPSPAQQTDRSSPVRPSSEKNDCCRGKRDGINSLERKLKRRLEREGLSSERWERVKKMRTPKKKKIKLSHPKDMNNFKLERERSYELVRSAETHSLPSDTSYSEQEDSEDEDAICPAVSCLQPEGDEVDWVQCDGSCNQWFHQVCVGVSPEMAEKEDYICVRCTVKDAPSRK

Row | Structure (SMILES) | Potency | activity change, negative = inhibition
1 | N#Cc1ccc(CN2CC[C@@H]3OCC(=O)N(CCc4cccnc4)[C@H]3CC2)cc1 | inconclusive: 50.1 µM [inhibitor, partial curve, poor fit] | –
2 | CN(Cc1ccc(-c2ccccc2)cc1)C(=O)c1ccccc1 | – | inactive: -20.4% [at 86.2 µM]
3 | CCNc1nc2ccccc2nc1C(C#N)S(=O)(=O)c1ccc(C)c(C)c1 (configuration not stated) | inconclusive: 20 µM [inhibitor, partial curve, poor fit] | –
4 | COc1ccc(CNC(=O)c2ccc(NC(=O)N3CCSc4ncccc43)cc2)cc1 | inconclusive: 25.1 µM [inhibitor, partial curve, poor fit] | –
5 | CCCNC(=O)CN1CCN(c2ccc(NC(=O)c3ccc(OC)cc3)cc2C(=O)O)CC1 | inconclusive: 25.1 µM [inhibitor, partial curve, poor fit] | –
6 | O[C@@H]1C[C@@H](c2nnc3n2CCN(C2CCCC2)C3)N(Cc2cccnc2)C1 | inconclusive: 17.8 µM [inhibitor, partial curve] | –
7 | COCCCNc1nc2c([S+](=O)([O-])c3ccc(Cl)cc3)nnn2c2ccccc12 | inconclusive: 28.2 µM [inhibitor, single point] | –
8 | COc1cccc(CCNC(=O)c2cnc3sc(N4CCOCC4)nn3c2=O)c1 | inconclusive: 15.8 µM [inhibitor, partial curve, poor fit] | –
9 | CC1=C[C@@H](CN2CCC[C@H]2CO)[C@H](C(C)C)C[C@H]1Cc1nnc(-c2ccc(N(C)C)cc2)o1 | active: 11.2 µM | –
10 | COc1ccc(-c2nc(C#N)c(N3CCN(C(=O)c4ccccc4OC)CC3)o2)cc1 | inconclusive: 31.6 µM [inhibitor, partial curve, poor fit] | –
11 | COc1ccc(-c2cc3nc4c(c(=O)n3[nH]2)CN(C(=O)c2cc(CN3CCOCC3)on2)CC4)cc1 | active: 8.91 µM | –
12 | COc1ccccc1NC(=O)C1=C(C)Nc2nc(-c3ccco3)nn2C1c1ccccc1F (configuration not stated) | inconclusive: 31.6 µM [inhibitor, partial curve, poor fit] | –
13 | CC1(CNc2ccccc2)COc2ccc(C(=O)N3CCN(c4ccccn4)CC3)cc2N1 (configuration not stated) | inconclusive: 28.2 µM [inhibitor, partial curve, poor fit] | –
14 | CN1CCC2(C1)CN(Cc1ccccc1)c1ccc(C(=O)NCC3CC3)cc12 (configuration not stated) | active: 35.5 µM | –
15 | COc1ccc(CNC(=O)c2sc(NCCc3ccccc3)nc2C)cc1 | – | inactive: 14%
16 | CSc1sc(C(=O)NNC(=O)c2ccc(Cl)cc2)c2c1C=CCC2 | inconclusive: 25.1 µM [inhibitor, single point] | –
17 | CC(C)NC(=O)c1nc(-c2ccc(Cl)cc2Cl)c2cnccn12 | active: 79.4 µM | –
18 | CCNC(=O)O[C@@H]1CO[C@H]2[C@@H]1OC[C@@H]2NC(=O)c1cccc(C(=O)OC)c1 | inconclusive: 11.2 µM [inhibitor, partial curve] | –
19 | CCNC(=O)NC[C@@H]1C=C(C)[C@H](CC(=O)NCc2ccccn2)C[C@H]1C(C)C | inconclusive: 28.2 µM [inhibitor, partial curve] | –
20 | CC(C)Nc1nc2c(-c3cccc(Br)c3)nnn2c2ccccc12 | inconclusive: 28.2 µM [inhibitor, partial curve, poor fit] | –
21 | O=C(NCCn1cc(SCc2ccc(F)cc2)c2ccccc21)c1cccs1 | – | inconclusive: -41% [inhibitor]

Row | Structure (SMILES) | Potency | activity change, negative = inhibition
22 | CCOC(=O)c1ccc(NC(=O)Cn2ccn3nc4c(c3c2=O)CCCCC4)cc1 | inconclusive: 28.2 µM [inhibitor, partial curve, poor fit] | –
23 | CCc1nc(-c2ccc(C)c(S(=O)(=O)N3CCN(c4ccc(C(C)=O)cc4)CC3)c2)no1 | inconclusive: 1.58 µM [inhibitor, full curve, poor fit] | –
24 | O=C(NCCCN1CCCC1=O)C1Cn2cccc2C(=O)N1Cc1cccnc1 (configuration not stated) | inconclusive: 28.2 µM [inhibitor, single point] | –
25 | c1cncc(CN2CCC(OC3CCN(Cc4ccncc4)CC3)CC2)c1 | inconclusive: 25.1 µM [inhibitor, single point] | –
26 | Cc1csc(N2N=C(c3ccccc3)CC2c2ccc(Cl)cc2)n1 (configuration not stated) | inconclusive: 1.58 µM [inhibitor, partial curve, poor fit] | –
27 | O=C(CC1C(=O)NCCN1Cc1cccc(Oc2ccccc2)c1)NCc1ccoc1 (configuration not stated) | inconclusive: 22.4 µM [inhibitor, single point] | –
28 | N#CC1(NC(=O)CSc2ccc3ccccc3n2)CCCC1 | – | inactive: -9.92%
29 | COC(=O)c1ccc(C2NC(=O)c3c(sc(C)c3C)N2)cc1 (configuration not stated) | inconclusive: 25.1 µM [inhibitor, partial curve, poor fit] | –
30 | COCCn1c(SC(C)c2nc(C(C)(C)C)no2)nc2sc(C)c(C)c2c1=O (configuration not stated) | – | inactive: 93.2%
31 | Cc1nn(-c2ccccc2[N+](=O)[O-])c(C)c1[C@@H]1C=C[C@@H](NCc2ccc(F)cc2)C1 | inconclusive: 28.2 µM [inhibitor, partial curve, poor fit] | –
32 | COc1cc(CNCCSc2nnnn2C)ccc1OCc1ccc(Cl)cc1Cl | inconclusive: 1.41 µM [inhibitor, partial curve, poor fit] | –
33 | COc1ccc(NC(=O)NC[C@@H]2C=C(C)[C@H](CC(=O)NCCN(C)C)C[C@H]2C(C)C)cc1 | – | inactive: -10.2%
34 | Cc1ccc(CN2CCC(Oc3cnc4c(ccn4CCN[S+](C)(=O)[O-])c3)CC2)c(F)c1 | active: 31.6 µM | –
35 | COc1cccc(-c2noc(CC3CCN(C(=O)c4ccc(F)cc4)CC3)n2)c1 | – | inactive: 10.6%
36 | CCOC(=O)c1sc(=S)n(C)c1NC(=O)c1ccc(C(C)(C)C)cc1 | inconclusive: 25.1 µM [inhibitor, partial curve, poor fit] | –
37 | COc1ccc(-c2cc(=O)n(-c3ccc(C)c(C)c3)[nH]2)cc1 | inconclusive: 2 µM [inhibitor, full curve, poor fit] | –
38 | COc1cccc(-c2cnc3n[nH]c(-c4ccccc4)c3n2)c1 | active: 35.5 µM | –
39 | CCc1cccc(NC(=O)CCC2CCCCC2)c1 | – | inactive: 7.38%
40 | O=C(NCCCN1CCCC1=O)c1ccc(-c2ncc3cnc(-c4ccccc4)cn23)cc1 | active: 31.6 µM | –
41 | CN(C)C[C@@H]1CN(Cc2ccccc2)C[C@H]1NC(=O)C1(C)CCOCC1 | inconclusive: 35.5 µM [inhibitor, partial curve, poor fit] | –
42 | CCC(C(=O)Nc1ccc(C)c(Cl)c1)n1c(=O)c(-c2ccccc2NC(C)=O)nc2ccccc21 (configuration not stated) | inconclusive: 15.8 µM [inhibitor, partial curve, poor fit] | –

Row | Structure (SMILES) | Potency | activity change, negative = inhibition
43 | CC(C)c1ccc(CC(=O)N2CCCc3ncc(C(=O)Nc4cccnc4)cc32)cc1 | inconclusive: 12.6 µM [inhibitor, partial curve] | –
44 | COc1cc(CN2C[C@@H](CO)[C@H](C3CCN(C(C)=O)CC3)C2)ccc1F | – | inactive: -7.01%
45 | COc1ccc(/C=C2\Oc3cc(OS(C)(=O)=O)ccc3C2=O)cc1 | inconclusive: 15.8 µM [inhibitor, partial curve, poor fit] | –
46 | CCOC(=O)C1=C(C)N=C2SC=C(CC(=O)NCCc3cccs3)N2C1c1ccccc1F (configuration not stated) | inconclusive: 31.6 µM [inhibitor, partial curve, poor fit] | –
47 | CCc1ccc(N2CC(c3noc(-c4cc(F)ccc4F)n3)CC2=O)cc1 (configuration not stated) | inconclusive: 25.1 µM [inhibitor, single point] | –
48 | Cn1nc(C(=O)Nc2cccc3cnccc23)c2ccccc2c1=O | inconclusive: 28.2 µM [inhibitor, single point] | –
49 | COc1ccc(CN2CCOC(c3cccnc3)C2)cc1Cn1cccn1 (configuration not stated) | – | inactive: 1.28%
50 | CC(=O)Nc1ccc(S(=O)(=O)[C@H]2CS(=O)(=O)C[C@@H]2N2C[C@H](C)C[C@H](C)C2)cc1 | – | inactive: 11.3%
51 | COc1cc2c(cc1OC)-c1c(c(C(=O)NCCN3CCOCC3)nn1-c1ccccc1)C2 | inconclusive: 22.4 µM [inhibitor, partial curve, poor fit] | –
52 | CCC(Sc1nnc(-c2ccc(OC)c(OC)c2)c(-c2ccc(OC)c(OC)c2)n1)C(=O)NC1CCCC1 (configuration not stated) | inconclusive: 39.8 µM [inhibitor, partial curve, poor fit] | –
53 | COc1cccc(NC(=O)Cn2nc(C)c3c(C)n(-c4ccccc4)nc3c2=O)c1 | inconclusive: 2.51 µM [inhibitor, partial curve, poor fit] | –
54 | CC(C)c1ccc(CNc2ncncc2-c2nc(-c3ccccc3)no2)cc1 | inconclusive: 35.5 µM [inhibitor, single point] | –
55 | COc1cccc(NC(=O)C2CCCN(Cc3cccnc3)CCC(=O)NCC2)c1 (configuration not stated) | inconclusive: 35.5 µM [inhibitor, partial curve, poor fit] | –
56 | Cc1ccccc1-c1nc2cnccn2c1NCCC(=O)N1CCCCC1 | active: 25.1 µM | –
57 | O=C(NCCc1ccccc1)c1ccc(Cn2c(SCc3ccccc3)nc3cccnc32)cc1 | inconclusive: 39.8 µM [inhibitor, partial curve, poor fit] | –
58 | Cc1nn(CC(=O)NCCN2CCOC2=O)c(=O)n1CCc1ccccc1 | – | inactive: -5.7%
59 | CC(c1ccccc1)N(C)C(=O)COC(=O)c1c[nH]c2ccccc12 (configuration not stated) | – | inactive: -1.33%
60 | CNC(=O)c1cnc2sc(N3CCCCCC3)nn2c1=O | inconclusive: 14.1 µM [inhibitor, partial curve, poor fit] | –
61 | CCN(Cc1ccncc1)C(=O)CCC[C@@H]1[C@H]2CCCN3CCC[C@@H](CN1C(C)=O)[C@@H]23 | inconclusive: 20 µM [inhibitor, partial curve] | –
62 | CC(C)c1ccc(C(=O)NCc2ccnc3[nH]ccc23)cc1 | inconclusive: 28.2 µM [inhibitor, partial curve] | –
